{"source": "paper PMC6212790", "note": "The list shows a part of the results. At the low end of the ranking the order means little.", "data": [{"target": "T1, GST-Rok-C97-191 (UniProt O34857)", "T1 sequence": "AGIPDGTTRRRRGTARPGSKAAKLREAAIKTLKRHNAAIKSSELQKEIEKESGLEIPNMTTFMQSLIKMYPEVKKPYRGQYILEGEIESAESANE", "experiment": "protein binding microarray;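 further: rank score from −0.5 (least bound) to 0.5 (best bound)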", "details": "Rok is a gene silencer of Bacillus subtilis; high values mean tight binding; most listed sequences are background and not binding sites; double strand, one strand shown", "units": {"binding signal": "E-score"}, "values": [{"sequence": "ACCTCACC", "binding signal": -0.0594}, {"sequence": "AGCCTAGC", "binding signal": -0.183}, {"sequence": "ATGGAAAC", "binding signal": 0.0822}, {"sequence": "GCGAGTAA", "binding signal": 0.157}, {"sequence": "CGTCAGAA", "binding signal": -0.19}, {"sequence": "GGGTCATA", "binding signal": 0.0189}, {"sequence": "CTTATAAA", "binding signal": 0.0788}, {"sequence": "AGGAACCG", "binding signal": -0.152}, {"sequence": "ACGGCTCG", "binding signal": -0.153}, {"sequence": "GGGGCACC", "binding signal": -0.375}, {"sequence": "CCGCAAAG", "binding signal": -0.219}, {"sequence": "GCTAGGGA", "binding signal": -0.142}, {"sequence": "AGGGCAAA", "binding signal": 0.0239}, {"sequence": "CAGACTAC", "binding signal": 0.131}, {"sequence": "AATAGACG", "binding signal": -0.21}, {"sequence": "GCGGGTGA", "binding signal": -0.192}, {"sequence": "CGACCGCA", "binding signal": -0.158}, {"sequence": "CTACTAAA", "binding signal": 0.379}, {"sequence": "AGTCCCTA", "binding signal": -0.0161}, {"sequence": "CGTCCATC", "binding signal": -0.254}, {"sequence": "CCCGTACC", "binding signal": -0.179}, {"sequence": "AATAGGTG", "binding signal": 0.162}, {"sequence": "ATCCCCTG", "binding signal": 0.132}, {"sequence": "GTTGGATA", "binding signal": 0.112}, {"sequence": "GAGACCCC", "binding signal": -0.313}, {"sequence": "CAGAATGC", "binding signal": -0.188}, {"sequence": "ATACTGTA", "binding signal": 0.334}, {"sequence": "TAGCCGGA", "binding signal": 0.0621}, {"sequence": "GCTTTGCC", "binding signal": -0.232}, {"sequence": "CACACCAG", "binding signal": -0.0205}, {"sequence": "GTCTTTCA", "binding signal": -0.0106}, {"sequence": "GCCGAGAC", "binding signal": -0.0846}, {"sequence": "AACACAAC", "binding signal": -0.0365}, {"sequence": "GTAAGTAC", "binding signal": 0.281}, {"sequence": "ATTGGACA", "binding signal": 0.0233}, {"sequence": "AAGGATGA", "binding signal": -0.0751}, {"sequence": "AAATACGG", "binding signal": 0.213}, {"sequence": "CTATCTCC", "binding signal": 0.0551}, {"sequence": "CTGGTTAA", "binding signal": 0.0435}, {"sequence": "AGTACCCA", "binding signal": 0.0119}, {"sequence": "AATTGGTC", "binding signal": -0.0353}, {"sequence": "AACCTGGT", "binding signal": -0.161}, {"sequence": "ATCTCAAC", "binding signal": 0.0312}, {"sequence": "AACACACC", "binding signal": 0.0125}, {"sequence": "GATGGTAC", "binding signal": -0.094}, {"sequence": "CTAGTAAC", "binding signal": 0.27}, {"sequence": "CCTACGCA", "binding signal": -0.0433}, {"sequence": "AGCGCCGA", "binding signal": -0.217}, {"sequence": "GAGTTCAA", "binding signal": 0.00845}, {"sequence": "CGCAGGCC", "binding signal": -0.412}, {"sequence": "CAGAGCCA", "binding signal": -0.292}, {"sequence": "ATCGACGG", "binding signal": -0.143}, {"sequence": "TAAGTTGA", "binding signal": 0.114}, {"sequence": "CCGCCATC", "binding signal": -0.27}, {"sequence": "CCCTAGAG", "binding signal": -0.0794}, {"sequence": "AAAACACG", "binding signal": 0.11}, {"sequence": "CTCACGGC", "binding signal": -0.0132}, {"sequence": "ATTGGATC", "binding signal": -0.0246}, {"sequence": "ATCGCACA", "binding signal": -0.147}, {"sequence": "ACCACAGG", "binding signal": -0.18}, {"sequence": "CTGGTAGC", "binding signal": -0.00597}, {"sequence": "ACCCTTCC", "binding signal": -0.156}, {"sequence": "AGTGCTCA", "binding signal": -0.00672}, {"sequence": "CGTAACCC", "binding signal": -0.219}, {"sequence": "AGATCTTA", "binding signal": 0.233}, {"sequence": "CCACCTTA", "binding signal": -0.0737}, {"sequence": "ATATTGAT", "binding signal": 0.232}, {"sequence": "ACTTTCGC", "binding signal": 0.0461}, {"sequence": "AAGACTGT", "binding signal": -0.00412}, {"sequence": "ATATGATG", "binding signal": 0.276}, {"sequence": "CGGCGAAA", "binding signal": 0.00492}, {"sequence": "AGGCACAC", "binding signal": -0.195}, {"sequence": "GGCTGTAC", "binding signal": -0.276}, {"sequence": "GTCTTGCA", "binding signal": 0.0175}, {"sequence": "CTACACTC", "binding signal": -0.0438}, {"sequence": "GAGCCGTA", "binding signal": -0.113}, {"sequence": "GATAATCA", "binding signal": 0.0131}, {"sequence": "AGAGCATG", "binding signal": -0.201}, {"sequence": "CGATGTTA", "binding signal": -0.0425}, {"sequence": "GAGGCGAA", "binding signal": -0.139}, {"sequence": "GATTGCCA", "binding signal": -0.11}, {"sequence": "CCTGCACC", "binding signal": -0.27}, {"sequence": "ACATTCGA", "binding signal": 0.071}, {"sequence": "AGCTATAA", "binding signal": 0.174}, {"sequence": "ATAAACAC", "binding signal": 0.18}, {"sequence": "CCCGACGA", "binding signal": -0.11}, {"sequence": "AACTAAAA", "binding signal": 0.347}, {"sequence": "ATAAATAA", "binding signal": 0.269}, {"sequence": "AGCAGCAA", "binding signal": -0.121}, {"sequence": "AGGAGTAT", "binding signal": 0.174}, {"sequence": "AAGAACAA", "binding signal": 0.00476}, {"sequence": "AACCGGCT", "binding signal": -0.206}, {"sequence": "GTACACCA", "binding signal": 0.118}, {"sequence": "CATTGAGG", "binding signal": -0.0938}, {"sequence": "TCAGGCAA", "binding signal": -0.134}, {"sequence": "AAAGTCCG", "binding signal": -0.0193}, {"sequence": "CGACCTCC", "binding signal": -0.318}, {"sequence": "ATTCTTTG", "binding signal": 0.0592}, {"sequence": "CTGAACGA", "binding signal": -0.199}, {"sequence": "ACTGAACG", "binding signal": 0.0112}, {"sequence": "CACAGGGC", "binding signal": -0.285}, {"sequence": "CCCCAGGA", "binding signal": -0.239}, {"sequence": "CGGGGTCC", "binding signal": -0.299}, {"sequence": "TATGCTCA", "binding signal": -0.127}, {"sequence": "ACTTTCCC", "binding signal": -0.00799}, {"sequence": "CCGAAGAG", "binding signal": -0.178}, {"sequence": "ACAGGCGT", "binding signal": -0.077}, {"sequence": "ACTGCGTA", "binding signal": -0.0378}, {"sequence": "CCATGTAC", "binding signal": 0.185}]}]}
